These are yes or no findings as the source states them, for the method shown. For some of these results: Binding seen in cells or lysates may run through a third protein. Some entries that bind do so weakly or less than the wild type. For some of these results: Tags and fused reporters may be left off the sequences shown.

Assay [1] addresses T1, Δ1–127 Periphilin (V5-tagged) (human) (UniProt Q8NEY8).
T1 sequence: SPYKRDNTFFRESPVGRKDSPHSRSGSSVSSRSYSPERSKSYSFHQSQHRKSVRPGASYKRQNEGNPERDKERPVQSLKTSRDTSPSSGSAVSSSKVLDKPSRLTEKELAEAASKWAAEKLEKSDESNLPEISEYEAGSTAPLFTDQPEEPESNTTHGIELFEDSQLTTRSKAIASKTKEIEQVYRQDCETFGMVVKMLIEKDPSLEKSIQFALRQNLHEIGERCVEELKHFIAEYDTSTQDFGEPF
Nature of the assay: co-IP; IP of V5-Periphilin variants with anti-V5 antibody on Protein A/G resin from lysates (1% NP-40 or IGEPAL in TBS) of Periphilin KO HeLa cells complemented with Periphilin deletion mutants; 2 h at 4°C; TASOR detected by immunoblot. Background: Immunoblotting shows a protein as a band on a membrane.

Assay [2] deals with T2, Δ1–297 Periphilin (V5-tagged) (human) (UniProt Q8NEY8).
T2 sequence: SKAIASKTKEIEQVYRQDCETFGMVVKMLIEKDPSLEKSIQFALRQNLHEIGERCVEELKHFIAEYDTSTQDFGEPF
The assay is described as above.

Assay [3] concerns the target T3, Δ350–374 Periphilin (V5-tagged) (human) (UniProt Q8NEY8).
T3 sequence: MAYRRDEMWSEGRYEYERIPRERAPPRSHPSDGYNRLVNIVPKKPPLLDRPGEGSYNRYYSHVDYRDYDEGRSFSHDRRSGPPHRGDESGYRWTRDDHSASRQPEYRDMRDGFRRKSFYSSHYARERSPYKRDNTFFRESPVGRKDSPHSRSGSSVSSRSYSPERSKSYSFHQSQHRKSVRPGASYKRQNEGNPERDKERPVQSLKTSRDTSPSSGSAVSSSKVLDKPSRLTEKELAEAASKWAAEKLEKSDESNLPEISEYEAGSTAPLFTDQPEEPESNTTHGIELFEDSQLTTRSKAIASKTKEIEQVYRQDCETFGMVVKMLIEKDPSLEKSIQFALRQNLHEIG
Described as above.

The target of assay [4] is TASOR (endogenous) (human (endogenous in HeLa)) (UniProt Q9UK61). Nature of the assay: co-IP; IP of endogenous TASOR with anti-TASOR antibody on resin from lysates (14 000 g supernatant, 1% NP-40) of Periphilin KO HeLa cells complemented with V5-Periphilin variants; 2 h at 4°C; Periphilin detected by its V5 tag.
The target in assay [5] is T4, TASOR fragment (residues 1014–1095) (human, UniProt Q9UK61-1 1014-1095).
T4 construct: codon-optimized synthetic gene; untagged; Residues 1055–1071 are disordered in the crystal structure; also called untagged TASOR fragment; minimal core TASOR; source: E. coli BL21 (DE3), co-expressed with His6-Periphilin fragments from pRSF-Duet, co-purified with Periphilin
T4 sequence (looked up): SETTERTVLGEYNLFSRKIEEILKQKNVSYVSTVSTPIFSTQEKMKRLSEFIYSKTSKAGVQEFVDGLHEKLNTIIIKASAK
Description: crystal structure; Periphilin 292–367 with TASOR 1014–1095; sitting drop, 18°C, 0.1 M citrate pH 4.5, 1 M ammonium sulfate; SAD phasing with Br; refined at 2.5 Å; both purified.

With “TASOR (endogenous) (from UniProt Q9UK61 1-1670)”, the binding result in assay [1] is “binds”; in assay [2], “binds”; in assay [3], “no binding”.

B1: wild-type Periphilin (V5-tagged, full-length, isoform 2) (protein, UniProt Q8NEY8-2 1-374)
chain: MAYRRDEMWSEGRYEYERIPRERAPPRSHPSDGYNRLVNIVPKKPPLLDRPGEGSYNRYYSHVDYRDYDEGRSFSHDRRSGPPHRGDESGYRWTRDDHSASRQPEYRDMRDGFRRKSFYSSHYARERSPYKRDNTFFRESPVGRKDSPHSRSGSSVSSRSYSPERSKSYSFHQSQHRKSVRPGASYKRQNEGNPERDKERPVQSLKTSRDTSPSSGSAVSSSKVLDKPSRLTEKELAEAASKWAAEKLEKSDESNLPEISEYEAGSTAPLFTDQPEEPESNTTHGIELFEDSQLTTRSKAIASKTKEIEQVYRQDCETFGMVVKMLIEKDPSLEKSIQFALRQNLHEIGERCVEELKHFIAEYDTSTQDFGEPF
On to B1, for which, in assay [4], the binding entry is recorded as “binds”.

B2: Periphilin L356R (V5-tagged) (protein, UniProt Q8NEY8-2 1-374)
chain: MAYRRDEMWSEGRYEYERIPRERAPPRSHPSDGYNRLVNIVPKKPPLLDRPGEGSYNRYYSHVDYRDYDEGRSFSHDRRSGPPHRGDESGYRWTRDDHSASRQPEYRDMRDGFRRKSFYSSHYARERSPYKRDNTFFRESPVGRKDSPHSRSGSSVSSRSYSPERSKSYSFHQSQHRKSVRPGASYKRQNEGNPERDKERPVQSLKTSRDTSPSSGSAVSSSKVLDKPSRLTEKELAEAASKWAAEKLEKSDESNLPEISEYEAGSTAPLFTDQPEEPESNTTHGIELFEDSQLTTRSKAIASKTKEIEQVYRQDCETFGMVVKMLIEKDPSLEKSIQFALRQNLHEIGERCVEERKHFIAEYDTSTQDFGEPF
For B2, the binding entry in assay [4] was “no binding”.

B3: Periphilin L326A (V5-tagged) (protein, UniProt Q8NEY8-2 1-374)
chain: MAYRRDEMWSEGRYEYERIPRERAPPRSHPSDGYNRLVNIVPKKPPLLDRPGEGSYNRYYSHVDYRDYDEGRSFSHDRRSGPPHRGDESGYRWTRDDHSASRQPEYRDMRDGFRRKSFYSSHYARERSPYKRDNTFFRESPVGRKDSPHSRSGSSVSSRSYSPERSKSYSFHQSQHRKSVRPGASYKRQNEGNPERDKERPVQSLKTSRDTSPSSGSAVSSSKVLDKPSRLTEKELAEAASKWAAEKLEKSDESNLPEISEYEAGSTAPLFTDQPEEPESNTTHGIELFEDSQLTTRSKAIASKTKEIEQVYRQDCETFGMVVKMAIEKDPSLEKSIQFALRQNLHEIGERCVEELKHFIAEYDTSTQDFGEPF
In the case of B3, the binding result in assay [4] is “no binding”.

B4: Periphilin L333A/I337A (V5-tagged) (protein, UniProt Q8NEY8-2 1-374)
chain: MAYRRDEMWSEGRYEYERIPRERAPPRSHPSDGYNRLVNIVPKKPPLLDRPGEGSYNRYYSHVDYRDYDEGRSFSHDRRSGPPHRGDESGYRWTRDDHSASRQPEYRDMRDGFRRKSFYSSHYARERSPYKRDNTFFRESPVGRKDSPHSRSGSSVSSRSYSPERSKSYSFHQSQHRKSVRPGASYKRQNEGNPERDKERPVQSLKTSRDTSPSSGSAVSSSKVLDKPSRLTEKELAEAASKWAAEKLEKSDESNLPEISEYEAGSTAPLFTDQPEEPESNTTHGIELFEDSQLTTRSKAIASKTKEIEQVYRQDCETFGMVVKMLIEKDPSAEKSAQFALRQNLHEIGERCVEELKHFIAEYDTSTQDFGEPF
Regarding B4, the binding result in assay [4] is listed as “no binding”.

B5: Periphilin fragment (residues 292–367) (domain or fragment, human, UniProt Q8NEY8-2 292-367, looked up)
chain: SQLTTRSKAIASKTKEIEQVYRQDCETFGMVVKMLIEKDPSLEKSIQFALRQNLHEIGERCVEELKHFIAEYDTST
notes: codon-optimized synthetic gene; preceded by a His6 tag and a TEV site (ENLYFQG), digested with TEV protease; Two copies of this chain form a homodimer in the 2:1 complex with TASOR; A residue of the TEV site (G) may remain at the N-terminus after cleavage; not shown: His6, N-terminal, cleaved
On to B5, for which, in assay [5], the binding result was “binds”.

B6: Δ1–70 Periphilin (V5-tagged) (domain or fragment, UniProt Q8NEY8-2 71-374)
chain: GRSFSHDRRSGPPHRGDESGYRWTRDDHSASRQPEYRDMRDGFRRKSFYSSHYARERSPYKRDNTFFRESPVGRKDSPHSRSGSSVSSRSYSPERSKSYSFHQSQHRKSVRPGASYKRQNEGNPERDKERPVQSLKTSRDTSPSSGSAVSSSKVLDKPSRLTEKELAEAASKWAAEKLEKSDESNLPEISEYEAGSTAPLFTDQPEEPESNTTHGIELFEDSQLTTRSKAIASKTKEIEQVYRQDCETFGMVVKMLIEKDPSLEKSIQFALRQNLHEIGERCVEELKHFIAEYDTSTQDFGEPF
For B6, the binding result in assay [4] is listed as “binds”.

B7: Δ350–374 Periphilin (V5-tagged) (domain or fragment, UniProt Q8NEY8-2 1-349)
chain: MAYRRDEMWSEGRYEYERIPRERAPPRSHPSDGYNRLVNIVPKKPPLLDRPGEGSYNRYYSHVDYRDYDEGRSFSHDRRSGPPHRGDESGYRWTRDDHSASRQPEYRDMRDGFRRKSFYSSHYARERSPYKRDNTFFRESPVGRKDSPHSRSGSSVSSRSYSPERSKSYSFHQSQHRKSVRPGASYKRQNEGNPERDKERPVQSLKTSRDTSPSSGSAVSSSKVLDKPSRLTEKELAEAASKWAAEKLEKSDESNLPEISEYEAGSTAPLFTDQPEEPESNTTHGIELFEDSQLTTRSKAIASKTKEIEQVYRQDCETFGMVVKMLIEKDPSLEKSIQFALRQNLHEIG
As for B7, the binding result in assay [4] is given as “no binding”.

For the origin of these results see paper PMC7544229, “Periphilin self-association underpins epigenetic silencing by the HUSH complex” (Nucleic Acids Research, 2020).
